In all, about 310,000 compounds went through this assay and about 2,200 (0.71%) showed an effect of 50% or more. The effect is printed as a negative number. This is one part of the list.
The compounds below were run against human ether-à-go-go-related gene (hERG) potassium channel (human, UniProt Q12809) (assay: primary screen, population patch clamp on CHO cells stably expressing hERG).
Sequence of human ether-à-go-go-related gene (hERG) potassium channel (Q12809 whole entry, looked up): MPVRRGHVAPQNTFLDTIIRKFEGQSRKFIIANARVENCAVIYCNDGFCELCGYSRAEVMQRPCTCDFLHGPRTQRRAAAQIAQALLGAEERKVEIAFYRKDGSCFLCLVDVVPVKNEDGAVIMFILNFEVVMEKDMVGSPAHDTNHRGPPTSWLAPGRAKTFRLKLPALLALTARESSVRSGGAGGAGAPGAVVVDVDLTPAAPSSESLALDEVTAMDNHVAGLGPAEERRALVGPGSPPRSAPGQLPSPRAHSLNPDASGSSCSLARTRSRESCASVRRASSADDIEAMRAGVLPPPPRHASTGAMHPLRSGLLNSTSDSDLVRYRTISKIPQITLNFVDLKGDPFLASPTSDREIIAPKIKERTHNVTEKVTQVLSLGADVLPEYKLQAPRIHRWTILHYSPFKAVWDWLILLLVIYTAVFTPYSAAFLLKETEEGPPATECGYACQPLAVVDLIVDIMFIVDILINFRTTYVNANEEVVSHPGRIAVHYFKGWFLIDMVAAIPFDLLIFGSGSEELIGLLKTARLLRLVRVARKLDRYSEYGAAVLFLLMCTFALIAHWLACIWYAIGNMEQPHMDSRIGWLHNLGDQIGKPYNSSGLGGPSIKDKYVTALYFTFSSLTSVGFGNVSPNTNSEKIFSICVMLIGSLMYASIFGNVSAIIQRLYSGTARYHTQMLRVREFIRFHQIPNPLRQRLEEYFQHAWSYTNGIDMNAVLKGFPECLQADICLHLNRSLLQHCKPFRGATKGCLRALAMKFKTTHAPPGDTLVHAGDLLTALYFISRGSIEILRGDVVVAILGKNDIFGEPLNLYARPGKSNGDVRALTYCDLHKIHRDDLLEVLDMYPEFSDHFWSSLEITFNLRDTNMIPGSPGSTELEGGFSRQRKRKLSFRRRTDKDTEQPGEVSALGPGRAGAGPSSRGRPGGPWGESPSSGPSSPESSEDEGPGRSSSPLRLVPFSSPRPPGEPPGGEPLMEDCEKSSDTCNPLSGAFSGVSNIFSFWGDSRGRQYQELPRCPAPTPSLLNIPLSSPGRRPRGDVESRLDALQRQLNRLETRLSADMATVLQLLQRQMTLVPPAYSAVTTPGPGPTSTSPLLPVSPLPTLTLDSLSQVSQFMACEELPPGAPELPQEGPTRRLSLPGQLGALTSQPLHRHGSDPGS

| Structure (SMILES) | hERG current change (%, negative = inhibition) at 1uM [%] |
| --- | --- |
| Cc1ccc(S(=O)(=O)NCC(C)n2cncn2)cc1C (centres unmarked) | 16.8 |
| C[C@H]1C=C(C(=O)N2CCN(Cc3ccc4c(c3)OCO4)CC2)O[C@@H](OCc2ccc(CO)cc2)C1 | -24.4 |
| CC1CC(=O)Nc2ccccc2N1S(=O)(=O)c1cccc(Cl)c1 (centres unmarked) | 7.78 |
| N#Cc1nc(COc2cccc(Cl)c2)oc1NCc1ccncc1 | -53.8 |
| CCOC(=O)N1CCC(N2C(=O)c3ccc(C(=O)NCc4ccc(F)cc4)cc3C2=O)CC1 | 1.7 |
| Cc1nc2scc(C)n2c(=O)c1S(=O)(=O)N1CCN(c2ccc([N+](=O)[O-])cc2)CC1 | -4.07 |
| COC(=O)c1ccc(NC(=O)c2ccc(OC(C)=O)c(OC)c2)cc1 | 10.7 |
| CCOC(=O)C1=C(C)NC(=O)NC1c1cn(-c2ccccc2)nc1-c1cccs1 (centres unmarked) | 11.2 |
| O=c1[nH]c(=O)n(-c2cccc3ccccc23)c(O)c1C=NCc1ccc2c(c1)OCO2 | 2.06 |
| Cc1onc(-c2ccccc2)c1C(=O)OCC(=O)NCc1ccc(F)cc1 | 10.4 |
| COc1cccc(/C=C2/SC(=O)N(C)C2=O)c1OCc1ccc(C(=O)O)cc1 | 24.2 |
| COc1cc2c(cc1OC)C(Cc1ccc(O)cc1)NCC2 (centres unmarked) | 4.37 |
| COc1cccc(OCC(O)CN2CCc3ccccc3C2)c1.Cl (centres unmarked) | -57.6 |
| CCOC(=O)N1CCN(CCC(=O)Nc2ccc(Br)cc2)CC1 | 1.37 |
| O=[N+]([O-])c1cccc(O)c1 | 14.9 |
| CC(=O)Nc1ccc(NC(=O)C(C)OC(=O)CSc2ccc(Br)cc2C)cc1 (centres unmarked) | 7.83 |
| O=C(CCCn1cnc2ccccc2c1=O)Nc1ccccc1F | 5.5 |
| CCCCn1nc(C(=O)N[C@@H](CCSC)c2nc3ccccc3[nH]2)c2ccccc2c1=O | 3.43 |
| Cc1c(N=C/C=C2/N(C)c3ccccc3C2(C)C)c(=O)n(-c2ccccc2)n1C | -5.46 |
| Cc1ccc(C(=O)NCC(c2ccco2)N2CCc3ccccc32)cc1C (centres unmarked) | -23.3 |
| COc1ccc(C[C@H]2CN3C(=NC[C@@H]3C(C)C)N2CCNC(=O)CCC2CCCCC2)cc1 | -86 |
| CN(C)CCCNc1nc(-c2ccc(Cl)cc2)nc2ccccc12 | 6.73 |

| Structure (SMILES) | hERG current change (%, negative = inhibition) at 1uM [%] |
| --- | --- |
| CC(CN1CCCCC1)OC(=O)c1ccc(Cl)cc1Cl.Cl (centres unmarked) | -0.0635 |
| O=C(CN1CCCC1)Nc1ccccc1Sc1ccc(Cl)cc1 | -0.77 |
| O=C(Nc1cc(C(F)(F)F)ccc1N1CCOCC1)c1c(F)c(F)c(F)c(F)c1F | 4.97 |
| O=C(NCc1cccc(Cl)c1)c1cnn2c1NC(c1ccco1)CC2C(F)(F)F (centres unmarked) | -14.8 |
| CCN(CC)S(=O)(=O)c1ccc(NC(=O)COC(=O)c2cc(S(=O)(=O)Nc3ccc(OC)cc3)ccc2O)cc1 | 4.76 |
| CC(=O)N1CCN(CC(=O)Nc2sccc2C#N)CC1 | 14.9 |
| Fc1cccc(CSc2nc3ccncc3[nH]2)c1 | 8.85 |
| Cc1cnc([N+](=O)[O-])n1CCOC(=O)NC(=O)c1ccccc1 | 5.34 |
| COc1cc(CCC(=O)OCC(=O)Nc2ccc3c(c2)OCO3)cc(OC)c1OC | 14.3 |
| CCn1c(SCC(N)=O)nc2ccccc2c1=O | 12.5 |
| CCOC(=O)C1CCN(C(=O)C2(NC(=O)Nc3ccc(F)cc3F)CCCCC2)CC1 | 4.24 |
| Cn1nc(-c2ccccc2)c(-c2nc(-c3cccc(C(F)(F)F)c3)no2)c1Cl | 13.2 |
| COc1cccc(CNCc2ccc3c(c2)OCO3)c1.O=C(O)C(=O)O | 11.6 |
| O=C(O)c1cc(S(=O)(=O)Nc2cc(Cl)ccc2Oc2ccccc2)ccc1O | 19.7 |
| O=C(NCc1cccnc1)c1cccc(-c2cc3ccccc3oc2=O)c1 | -12.7 |
| CC(Sc1nc2ncc(Cl)cc2[nH]1)C(=O)Nc1ccc(C(N)=O)cc1 (centres unmarked) | 10.2 |
| Cn1c2c(c(=O)[nH]c1=O)C(NC(=O)c1ccco1)(C(F)(F)F)C(=O)N2 (centres unmarked) | 12.6 |
| Cn1ncc2nc[nH]c(=O)c21 | 9.82 |
| Cn1cc(CNC(=O)C2c3ccccc3Oc3ccccc32)cn1 | 10.9 |
| c1ccc(Oc2cc(-n3cccn3)ncn2)cc1 | -6.74 |
| Cc1cc(C)c2c3c(sc2n1)C(c1ccccc1)C(C#N)=C(N)O3 (centres unmarked) | 1.32 |
| Cc1ccc(NC(=O)/C(C#N)=C/c2ccc(C)s2)c(C)c1 | 14.2 |

Reference: paper PMC4336329 (PLoS ONE, 2015)
